Data: the supplement of paper PMC4967469
The IC50 comes from the fitted curve, where viability falls to half of the control; a limit (>, <) means that the fit lies beyond the doses tested. For AUC the same curve is integrated over the 256-fold range of doses and scaled to a fraction; it is 1 without any effect and falls as sensitivity rises. For part of these data: An inferred top dose was calculated from the reported fits.

Tests used:
Test in all cases: Viability of human cancer cell lines after 72 h of drug (GDSC screen)
[1] = compound: CCc1cncnc1N1CCN(Cc2nc3ccc(C(F)(F)F)cc3[nH]2)CC1 [PF-4708671]; conditions: top dose 10 µM; top dose inferred
Description: (§1)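 Human cancer cell lines in 384-well plates, medium with 10% serum, drug for 72 h over a 256-fold dose range (nine 2-fold or five 4-fold steps up to the top dose). Adherent lines were fixed and stained with the nucleic acid dye Syto60, suspension lines read with resazurin; signal relative to control wells, capped at 0 and 100%. One two-parameter sigmoid per drug and line, fitted in a mixed model over all curves with the slope shared within a line.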

[2] = compound: COc1cc2nccc(Oc3ccc(NC(=O)Nc4cc(C)on4)c(Cl)c3)c2cc1OC [AV-951]; conditions: top dose 0.128 µM; top dose inferred
Description: as §1

[3] = compound: O=C(NC(COc1ccc2[nH]c(=O)[nH]c2c1)c1ccccc1)c1cccn(Cc2ccc(F)c(F)c2)c1=O [KIN001-244]; conditions: top dose 20 µM; top dose inferred
Description: as §1

[4] = compound: CC(=O)Nc1cccc(-n2c(=O)n(C3CC3)c(=O)c3c(Nc4ccc(I)cc4F)n(C)c(=O)c(C)c32)c1 [Trametinib]; conditions: top dose 1 µM
Description: as §1

[5] = compound: CCNC(=O)C[C@@H]1N=C(c2ccc(Cl)cc2)c2cc(OC)ccc2-n2c(C)nnc21 [I-BET-762]; conditions: top dose 20 µM; top dose inferred
Description: as §1

[6] = compound: CCN1CCN(Cc2ccc(NC(=O)c3ccc(C)c(/C=C/c4cnc5[nH]ccc5c4OC)c3)cc2C(F)(F)F)CC1 [HG-6-64-1]; conditions: top dose 5.12 µM; top dose inferred
Description: as §1

IA-LM (large cell lung carcinoma, adherent)
AUC [1]: 0.962
IC50 [1]: > 10 µM
AUC [2]: 0.981
IC50 [2]: > 0.128 µM
AUC [3]: 0.935
IC50 [3]: > 20 µM
AUC [4]: 0.742
IC50 [4]: 0.339 µM
AUC [5]: 0.977
IC50 [5]: > 20 µM
AUC [6]: 0.753
IC50 [6]: 1.9 µM

IHH-4 (thyroid, semi-adherent)
AUC [1]: 0.935
IC50 [1]: > 10 µM
AUC [2]: 0.99
IC50 [2]: > 0.128 µM
AUC [3]: 0.875
IC50 [3]: 13.2 µM
AUC [4]: 0.056
IC50 [4]: < 0.00391 µM
AUC [5]: 0.984
IC50 [5]: > 20 µM
AUC [6]: 0.577
IC50 [6]: 0.497 µM

IPC-298 (melanoma, adherent)
AUC [1]: 0.702
IC50 [1]: 2.29 µM
AUC [2]: 0.987
IC50 [2]: > 0.128 µM
AUC [3]: 0.89
IC50 [3]: > 20 µM
AUC [4]: 0.071
IC50 [4]: < 0.00391 µM
AUC [5]: 0.781
IC50 [5]: 8.15 µM
AUC [6]: 0.887
IC50 [6]: > 5.12 µM

J82 (bladder, adherent)
AUC [1]: 0.968
IC50 [1]: > 10 µM
AUC [2]: 0.988
IC50 [2]: > 0.128 µM
AUC [3]: 0.963
IC50 [3]: > 20 µM
AUC [4]: 0.897
IC50 [4]: > 1 µM
AUC [5]: 0.985
IC50 [5]: > 20 µM
AUC [6]: 0.468
IC50 [6]: 0.262 µM

JEG-3 (urogenital system, adherent)
AUC [1]: 0.969
IC50 [1]: > 10 µM
AUC [2]: 0.991
IC50 [2]: > 0.128 µM
AUC [3]: 0.991
IC50 [3]: > 20 µM
AUC [4]: 0.988
IC50 [4]: > 1 µM
AUC [5]: 0.991
IC50 [5]: > 20 µM
AUC [6]: 0.991
IC50 [6]: > 5.12 µM

JHH-1 (liver, adherent)
AUC [1]: 0.938
IC50 [1]: > 10 µM
AUC [2]: 0.985
IC50 [2]: > 0.128 µM
AUC [3]: 0.77
IC50 [3]: 8.28 µM
AUC [4]: 0.181
IC50 [4]: 0.00615 µM
AUC [5]: 0.62
IC50 [5]: 2.76 µM
AUC [6]: 0.844
IC50 [6]: 4.15 µM

JHH-2 (liver, adherent)
AUC [1]: 0.952
IC50 [1]: > 10 µM
AUC [2]: 0.986
IC50 [2]: > 0.128 µM
AUC [3]: 0.881
IC50 [3]: > 20 µM
AUC [4]: 0.797
IC50 [4]: 0.513 µM
AUC [5]: 0.954
IC50 [5]: > 20 µM
AUC [6]: 0.97
IC50 [6]: > 5.12 µM

JHH-4 (liver, adherent)
AUC [1]: 0.883
IC50 [1]: > 10 µM
AUC [2]: 0.965
IC50 [2]: > 0.128 µM
AUC [3]: 0.781
IC50 [3]: 8.24 µM
AUC [4]: 0.644
IC50 [4]: 0.156 µM
AUC [5]: 0.862
IC50 [5]: 17.1 µM
AUC [6]: 0.58
IC50 [6]: 0.529 µM

JHH-6 (liver, adherent)
AUC [1]: 0.92
IC50 [1]: > 10 µM
AUC [2]: 0.981
IC50 [2]: > 0.128 µM
AUC [3]: 0.88
IC50 [3]: > 20 µM
AUC [4]: 0.937
IC50 [4]: > 1 µM
AUC [5]: 0.958
IC50 [5]: > 20 µM
AUC [6]: 0.826
IC50 [6]: 3.16 µM

JHH-7 (liver, adherent)
AUC [1]: 0.929
IC50 [1]: > 10 µM
AUC [2]: 0.981
IC50 [2]: > 0.128 µM
AUC [3]: 0.899
IC50 [3]: > 20 µM
AUC [4]: 0.344
IC50 [4]: 0.0238 µM
AUC [5]: 0.988
IC50 [5]: > 20 µM
AUC [6]: 0.653
IC50 [6]: 0.827 µM

JHU-022 (head and neck, adherent)
AUC [1]: 0.961
IC50 [1]: > 10 µM
AUC [2]: 0.977
IC50 [2]: > 0.128 µM
AUC [3]: 0.954
IC50 [3]: > 20 µM
AUC [4]: 0.459
IC50 [4]: 0.0468 µM
AUC [5]: 0.982
IC50 [5]: > 20 µM
AUC [6]: 0.793
IC50 [6]: 3.07 µM
